# Data published in article PMC4336329 (PLoS ONE, 2015).
# About 14,000 (4.5%) of roughly 310,000 compounds showed an effect of 50% or more. The effect is printed as a negative number. The list shows a part of the results.
# Target: human ether-à-go-go-related gene (hERG) potassium channel (human, UniProt Q12809)
# Assay: primary screen, population patch clamp on CHO cells stably expressing hERG
# 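Note: peak tail current of the secondary pulse compared with the same well before compound.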
# Chain of human ether-à-go-go-related gene (hERG) potassium channel (Q12809 whole entry, looked up): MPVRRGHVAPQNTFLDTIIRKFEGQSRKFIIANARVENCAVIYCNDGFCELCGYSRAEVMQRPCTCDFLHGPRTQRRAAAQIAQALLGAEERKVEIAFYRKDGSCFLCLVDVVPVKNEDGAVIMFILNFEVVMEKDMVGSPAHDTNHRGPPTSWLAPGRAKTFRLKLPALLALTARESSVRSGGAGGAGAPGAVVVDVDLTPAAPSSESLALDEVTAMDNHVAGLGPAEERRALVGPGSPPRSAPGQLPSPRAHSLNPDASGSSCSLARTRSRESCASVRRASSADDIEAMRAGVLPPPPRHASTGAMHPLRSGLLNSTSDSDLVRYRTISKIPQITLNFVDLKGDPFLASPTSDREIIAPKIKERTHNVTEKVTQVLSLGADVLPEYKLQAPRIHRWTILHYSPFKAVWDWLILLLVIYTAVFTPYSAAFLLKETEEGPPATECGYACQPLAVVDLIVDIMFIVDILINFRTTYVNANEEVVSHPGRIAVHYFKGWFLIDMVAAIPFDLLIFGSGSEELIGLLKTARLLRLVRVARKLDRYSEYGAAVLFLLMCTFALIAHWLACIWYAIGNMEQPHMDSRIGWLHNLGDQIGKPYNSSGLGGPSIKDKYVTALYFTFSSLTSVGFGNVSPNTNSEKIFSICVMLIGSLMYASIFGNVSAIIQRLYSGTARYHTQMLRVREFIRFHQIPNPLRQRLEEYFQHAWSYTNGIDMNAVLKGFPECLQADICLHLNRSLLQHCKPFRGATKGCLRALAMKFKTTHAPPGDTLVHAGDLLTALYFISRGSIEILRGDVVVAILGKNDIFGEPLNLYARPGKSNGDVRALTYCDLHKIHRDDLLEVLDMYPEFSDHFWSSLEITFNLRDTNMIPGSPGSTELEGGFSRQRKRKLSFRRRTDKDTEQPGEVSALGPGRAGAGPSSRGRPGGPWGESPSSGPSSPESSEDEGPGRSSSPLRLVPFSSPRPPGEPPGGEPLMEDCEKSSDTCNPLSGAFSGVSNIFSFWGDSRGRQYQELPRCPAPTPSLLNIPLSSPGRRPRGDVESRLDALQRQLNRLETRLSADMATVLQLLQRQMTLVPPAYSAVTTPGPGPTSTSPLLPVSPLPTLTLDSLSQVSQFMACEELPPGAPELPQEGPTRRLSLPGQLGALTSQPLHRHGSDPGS
row,SMILES,"hERG current change (%, negative = inhibition) at 10uM [%]"
1,CCC(=O)N(CC(=O)Nc1sc(C)c(C)c1C(N)=O)C1CCCC1,0.759
2,COc1cc(/C=N/NC(=O)CSc2n[nH]c(=O)[nH]c2=O)cc(OC)c1O,28.8
3,CCOc1ccc(Cl)cc1/C=C1/C(=O)ON=C1C,-6.65
4,COc1ccc(/C=C2\SC(=Nc3ccccc3)NC2=O)cc1,19.7
5,COc1ccc(S(=O)(=O)N(C)c2ccc(C(=O)Nc3ccccc3C(=O)N3CCOCC3)cc2)cc1OC,18
6,O=C(NCCc1ccccc1)c1nc(CS(=O)(=O)c2ccc(Cl)cc2)no1,7.72
7,COC(=O)CCCN=C1SCCN1Cc1ccccc1,-2.13
8,Cc1cc(NS(=O)(=O)c2ccccc2)no1,0.414
9,Clc1ccccc1/C=N/Nc1cc(N2CCOCC2)ncn1,23.9
10,COC(=O)C1=C(c2c(C)noc2C)C[C@@H]2CC[C@H]1N2C(=O)NCCOc1ccccc1,5.03
11,CN(CC(=O)N1CCCCCC1)S(=O)(=O)c1ccc(Br)cc1,-21.8
12,CC(C)(C)OC(=O)N[C@@H](C(=O)OC(C)(C)C)c1ccccc1,3.46
13,CCC1Oc2ccccc2N(CC(=O)NCCCN2CCN(Cc3ccccc3)CC2)C1=O (stereo not drawn),-42
14,O=C(NCc1csc(-c2cccs2)n1)Nc1ccc(F)cc1F,7.58
15,O=C(CCc1ccccc1)NC(=S)Nc1ccc(S(=O)(=O)N2CCOCC2)cc1,5.25
16,CCN(CC)CCn1c2ccccc2c2nc3ccccc3nc21,-7.76
17,CC1=CN2C(=N)/C(=C/c3ccc(C)o3)C(=O)N=C2S1,5.91
18,CCOC(=O)c1c(NC(=O)C(F)(OC)C(F)(F)F)sc2c1CCN(C)C2 (stereo not drawn),-17.9
19,NC(=O)c1ccc(NC(=O)COC(=O)c2cc(S(=O)(=O)N3CCOCC3)ccc2N2CCCCC2)cc1,4.09

row,SMILES,"hERG current change (%, negative = inhibition) at 10uM [%]"
1,O=C(CCC(=O)N1CCN(c2ccc(F)cc2)CC1)c1ccccc1,-12.7
2,CNc1nc(C)c([N+](=O)[O-])c(Nc2ccc(OC)cc2)n1,15.6
3,O=C(Nc1ccccc1)c1cccnc1NCCc1ccccc1,3.15
4,O=C(NCc1ccc(N2CCCC2=O)cc1)c1cn(Cc2ccccc2)nn1,0.548
5,CC(C)c1nc2ccc(NC(=O)C34CC5CC(CC(C5)C3)C4)cc2[nH]1,4.9
6,COc1ccc(CNC(C)Cc2cccs2)cc1 (stereo not drawn),-2.79
7,COc1ccc(C2=NS(=O)(=O)N(C)C(C(=O)NC3CCCC3)=C2)cc1,2.43
8,CN1CCN(c2ccc(N)c(N3CCN(C)CC3)c2)CC1,13.4
9,COC(=O)C(C(=O)OC)c1ccc(-n2cccc2)cc1,7.59
10,CC(=O)Nc1ccc(S(=O)(=O)NC2(C(F)(F)F)NC(=O)N(C3CCCC3)C2=O)cc1 (stereo not drawn),9.98
11,CC(NS(=O)(=O)c1ccc(Br)cc1)C(c1cccs1)N1CCN(C)CC1 (stereo not drawn),-53.2
12,Cc1ccc(NCc2nc3ccccc3n2CCOc2ccccc2)cc1,3.82
13,N/C(=N\OC(=O)CCc1ccccc1)c1ccc(Cl)cc1,10.3
14,COc1ccc(-c2ncccc2OC(=O)C23CC4CC(CC(C4)C2)C3)cc1.Cl.O,-2.35
15,Cc1cc(C)n(-c2ccc(C(=O)Nc3cccc([N+](=O)[O-])c3)cc2)n1,40.2
16,CS(=O)(=O)Nc1ccc(C(=O)N2CC(=O)Nc3ccccc32)cc1,9.74
17,COCCNC(=O)CSc1ncnc2sc(-c3ccccc3)cc12,2.83
18,c1ccc2cc(Cn3ccnc3)ccc2c1,7.55
19,Cc1ccc(NC(=O)CS(=O)CC(=O)Nc2cnc3ccccc3c2)cc1Cl (stereo not drawn),12.9

row,SMILES,"hERG current change (%, negative = inhibition) at 10uM [%]"
1,CN(C)S(=O)(=O)c1ccc2nc(NC(=O)c3cccnc3)sc2c1,12.1
2,Cc1cccc(OCCn2c(CCCO)nc3ccccc32)c1,-23.2
3,C[n+]1ccc(C(=O)N/N=C/c2ccco2)cc1.[I-],26.7
4,NC(=O)c1sc2nc(N3CCOCC3)c3c(c2c1N)CCCC3,8.71
5,O=C(NCc1ccco1)C1CCN(S(=O)(=O)c2cccc([N+](=O)[O-])c2)CC1,-11.4
6,CC(C)c1ccc(OCCCCCN2CCOCC2)cc1.O=C(O)C(=O)O,-24.9
7,Cc1[nH]n(-c2ccccc2)c(=O)c1C1(C(F)(F)F)C(=O)N(c2ccccc2)C2=C1C(=O)CC(C)(C)C2 (stereo not drawn),28.4
8,Cc1cccc(-n2ncc3c2CCCC3NC(=O)Cc2c(C)noc2C)c1C (stereo not drawn),15.9
9,O=C(CCCN1C(=O)/C(=C/c2ccco2)SC1=S)Nc1ccccc1,-8.05
10,CC(C)(C)S(=O)(=O)c1ccccc1C(=O)O,2.89
11,O=C1CCNc2cc3ccccc3cc21,-1.11
12,OCC(O)/C=N/Nc1nc(Nc2ccccc2)nc(Nc2ccccc2)n1 (stereo not drawn),-6.41
13,Cc1nc2ccccc2c(=O)n1/N=C/c1ccncc1,-5.53
14,COC(=O)c1scc(C)c1N/N=C(\C)c1ccc(F)cc1F,3.33
15,CS(=O)(=O)c1ccc(-n2nnc3ccccc32)c([N+](=O)[O-])c1,-0.571
16,COc1cccc(CSc2nc3cc4c(cc3cc2C)OCCO4)c1,14.7
17,Clc1ccc(CCNc2nc3ccccc3s2)cc1,3.07
18,CN(CCOc1ccc(Cl)cc1)C(=O)CN1C(=O)NC2(CCCCC2)C1=O,-31.3
19,Cc1ccc2[nH]c(=O)c3cc(C(=O)N(C)Cc4ccco4)sc3c2c1,5.23
